Laboratory results reported in publication PMC4336329 (PLoS ONE, 2015).
About 14,000 (4.5%) of roughly 310,000 compounds showed an effect of 50% or more. The effect is printed as a negative number. Some of the results follow.

target: human ether-à-go-go-related gene (hERG) potassium channel (human, UniProt Q12809); assay: primary screen, population patch clamp on CHO cells stably expressing hERG
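Also: peak tail current of the secondary pulse compared with the same well before compound.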

Sequence of human ether-à-go-go-related gene (hERG) potassium channel (Q12809 whole entry, looked up): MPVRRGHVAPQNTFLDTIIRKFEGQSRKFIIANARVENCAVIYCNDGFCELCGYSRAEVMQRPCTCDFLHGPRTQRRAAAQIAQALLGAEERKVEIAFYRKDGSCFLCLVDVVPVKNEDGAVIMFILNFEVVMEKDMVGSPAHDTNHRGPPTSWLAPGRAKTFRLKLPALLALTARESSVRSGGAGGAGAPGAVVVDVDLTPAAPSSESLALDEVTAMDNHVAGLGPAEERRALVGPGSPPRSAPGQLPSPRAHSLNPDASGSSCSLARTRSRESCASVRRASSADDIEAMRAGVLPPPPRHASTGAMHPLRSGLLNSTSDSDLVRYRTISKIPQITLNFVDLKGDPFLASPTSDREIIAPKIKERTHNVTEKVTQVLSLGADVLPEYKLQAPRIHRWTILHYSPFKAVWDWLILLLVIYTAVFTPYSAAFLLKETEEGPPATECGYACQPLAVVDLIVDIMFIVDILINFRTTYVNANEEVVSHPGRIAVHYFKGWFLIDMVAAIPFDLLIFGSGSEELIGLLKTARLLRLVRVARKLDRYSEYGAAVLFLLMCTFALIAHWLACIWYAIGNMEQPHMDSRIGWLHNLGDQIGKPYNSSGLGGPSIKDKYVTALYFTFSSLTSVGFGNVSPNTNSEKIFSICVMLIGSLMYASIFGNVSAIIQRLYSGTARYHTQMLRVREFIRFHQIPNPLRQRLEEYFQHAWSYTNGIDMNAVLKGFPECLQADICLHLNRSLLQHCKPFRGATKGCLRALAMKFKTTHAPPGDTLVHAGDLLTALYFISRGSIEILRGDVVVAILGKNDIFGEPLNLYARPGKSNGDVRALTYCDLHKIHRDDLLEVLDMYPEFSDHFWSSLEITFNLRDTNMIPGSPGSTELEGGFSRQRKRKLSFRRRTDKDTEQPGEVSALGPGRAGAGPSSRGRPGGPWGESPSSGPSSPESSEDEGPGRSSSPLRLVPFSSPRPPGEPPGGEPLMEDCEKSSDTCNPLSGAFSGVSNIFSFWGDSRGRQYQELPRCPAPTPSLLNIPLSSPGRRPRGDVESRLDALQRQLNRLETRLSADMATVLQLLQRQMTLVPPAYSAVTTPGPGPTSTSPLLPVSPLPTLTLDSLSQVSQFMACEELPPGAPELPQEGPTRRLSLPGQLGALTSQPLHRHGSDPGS

SMILES	hERG current change (%, negative = inhibition) at 10uM
COc1ccc(OC)c(C(=O)CSc2nnc(Cc3cccs3)n2C)c1	-22.4%
CN(CC(=O)O)S(=O)(=O)c1cc(Cl)ccc1Cl	-2.81%
Cc1cc(=O)oc(C)c1C(=O)NCCCN1C(C)CCCC1C (stereo not drawn)	18%
COc1ccc(OCCNS(=O)(=O)c2cccc([N+](=O)[O-])c2)cc1	-5.23%
Cc1cc(Oc2cc(NN3CCCCC3)c([N+](=O)[O-])cc2[N+](=O)[O-])c(C(=O)c2ccccc2)cc1Cl	3.03%
Cl.N=C(N)SCP(=O)(c1ccccc1)c1ccccc1	14.1%
Cc1cc(OCC(=O)NCc2ccc(S(N)(=O)=O)cc2)c2c3c(c(=O)oc2c1)CCC3	15.8%
C=CCNc1nc(=S)[nH]c2cc(OC)c(OC)cc12	4.38%
CCCOc1ccc(C2C3=C(Nc4nc(N)[nH]c(=O)c42)c2ccccc2C3=O)cc1 (stereo not drawn)	-3.23%
COc1ccc(CCNC(=O)C(=O)NCc2ccccc2)cc1OC	9.59%
O=C(Cc1ccc(Cl)cc1)NCCS(=O)(=O)N1CCN(c2ccccc2F)CC1	-10.6%
Cc1cc(NC(=O)c2cccnc2Cl)ccc1NC(=O)c1cc2ccccc2o1	25.4%
O=C1CCC(=O)N(O)CCCCCNC(=O)CCC(=O)N(O)CCCCNC(=O)CCC(=O)N(O)CCCCCN1	11.6%
COc1ccccc1CC(=O)NC1CCCc2ccccc21 (stereo not drawn)	-32.8%
CCCCc1cc(=O)oc2cc(O)ccc12	-30.3%
CCOc1ccc(NC(=O)COC(=O)c2ccc3c(c2)OCCO3)cc1	9.29%
CCOc1ccccc1C1CC(=O)Nc2cc3c(cc21)OCCO3 (stereo not drawn)	-2.02%
O=C(c1ccc([N+](=O)[O-])cc1)n1nc(-c2ccccc2)nc1NCc1ccccc1	-4.24%
COc1ccc(/C=N/OCC(=O)NC(c2ccccc2)c2ccccc2)c(OC)c1	-35.1%
N#CCC(=O)NC(=O)NCC1CC1	1.74%
O=C(COc1ccccc1Cl)Nc1ccc(C(=O)O)cc1NC(=O)COc1ccccc1Cl	16.4%
CCN(CC)c1ccc(/C=N/NS(=O)(=O)c2ccc(C)c([N+](=O)[O-])c2)cc1	8.95%

SMILES	hERG current change (%, negative = inhibition) at 10uM
CC(CCc1ccccc1)NC(=O)COC(=O)c1ccc(NC(=O)CC#N)cc1 (stereo not drawn)	7.38%
O=S(=O)(Nc1ccc(OC(F)(F)F)cc1)c1cccc2nonc12	9.33%
COc1ccc(-c2nnn(CC(=O)N(CC(=O)NCCC(C)C)Cc3cccs3)n2)cc1OC	-26.8%
Cc1ccc2c(c1)CCCN2C(=O)c1ccco1	0.562%
COc1ccc(OC)c(NC(=O)c2c3c(nc4ccccc24)CCC3)c1	-21.8%
CC1=CC(=O)C=C(C)C1=NOC(=O)/C=C\c1ccccc1	15.9%
CSc1nc2c(c(-c3ccc(O)cc3)c1C#N)CCC2	12.6%
O=[N+]([O-])c1cccc(/C=C2\CCC(/C=N/Nc3ccc4ccccc4n3)=C2N2CCOCC2)c1	7.73%
COC(=O)Nc1c(C(=O)OC)cc(OC)c(OC)c1OC	-1.17%
C/C=C(\C)CN1CCC(n2nccc2NC(=O)CCc2ccccc2)CC1	-28.9%
CC(=O)NCC(=O)N1CCC(n2nccc2NC(=O)CCCc2ccccc2)CC1	-17.7%
CC(=O)Oc1cccc(N2C(=O)C3CC=C(Cl)CC3C2=O)c1 (stereo not drawn)	-2.74%
Cc1ccccc1N1CCN(C(=O)CCN2C(=O)c3ccccc3C2=O)CC1	-23.5%
COc1ccc(N2CCN(S(=O)(=O)c3ccc(C(=O)NCc4ccco4)cc3)CC2)cc1	-3.45%
Cc1ccc(N2C(=O)NC(NS(=O)(=O)c3ccc(C)cc3)(C(F)(F)F)C2=O)cc1 (stereo not drawn)	-4.62%
C/C(N)=C(/C#N)C(=O)COC(=O)COc1ccc(Cl)cc1C	-1.55%
Cl.NC(CC(=O)O)c1ccc(F)cc1 (stereo not drawn)	3.15%
COc1ccc(N2CCN(C(=O)COC(=O)CNC(=O)c3ccc(C)cc3)CC2)cc1	-21.3%
NC(=O)N1N=C2/C(=C/c3ccccc3)CCCC2C1c1ccccc1 (stereo not drawn)	-17.1%
COc1cccc(/C=C(\CC(=O)O)c2nc3ccccc3s2)c1	11.6%
COc1ccccc1CP(=O)(c1ccccc1)c1ccccc1	-6.07%
COCCn1c(Cc2ccccc2)nnc1SC(C)C(=O)NC1CC1 (stereo not drawn)	-22.4%

SMILES	hERG current change (%, negative = inhibition) at 10uM
CC(C)c1ccc(-c2nnc(SCC(=O)NC3CC3)n2C)cc1	6.36%
COc1ccc2cc(Br)ccc2c1CC(=O)NC1CC(C)(C)NC(C)(C)C1	-12.9%
Cc1cccc(C(=O)NCC(=O)OCc2cc(=O)n3ccsc3n2)c1	4.36%
CCOc1ccc(NC(=O)NCc2cccn2C)cc1	1.46%
COc1ccc(N2CC(C(=O)Nc3ccncc3)CC2=O)cc1 (stereo not drawn)	9.19%
Cc1ccc(NC(=O)COC(=O)COc2ccc3ccc(=O)oc3c2)cc1[N+](=O)[O-]	3.51%
OCCC1CN(Cc2ccon2)CCN1CCc1ccccc1 (stereo not drawn)	-19.2%
O=C(O)C(=O)O.OC1(c2ccccc2)CCNC2CCCCC21 (stereo not drawn)	0.512%
O=S(=O)(Nc1nc2ccccc2nc1Cl)c1ccc(F)cc1	6.75%
O=C(CSc1nnnn1-c1ccc2c(c1)OCO2)NCc1cccs1	-26.6%
CC(=O)c1cc2c(cc1NC(=O)CN1CCOCC1)OCO2	1.1%
CCOC(=O)C1C(c2ccc(Cl)cc2)NC(=S)NC1(O)C(F)(F)F (stereo not drawn)	16.7%
Cc1ccc2nc3nc(NCC4CCCO4)c(C(=O)NC4CCCCC4)cc3c(=O)n2c1 (stereo not drawn)	-78.1%
COc1cc(C(C#N)N2CCCCC2)ccc1O (stereo not drawn)	4.58%
O=C(c1cccs1)N1CCN(Cc2ccc3c(c2)OCO3)CC1	-15.7%
COc1ccc(-c2cc(CS(=O)(=O)c3ccccc3)on2)cc1	-15%
Cc1cc(C(=O)N/N=C\c2ccc(COc3ccc([N+](=O)[O-])cc3)o2)ccc1[N+](=O)[O-]	-7.77%
Cn1c(=O)c2ncn(CC(=O)Nc3cccc(-c4nc5ccccc5s4)c3)c2n(C)c1=O	-23.8%
CCOC(=O)c1c(-c2ccc(C)o2)csc1NC(=O)CSc1nnnn1-c1ccccc1	-3.66%
CN1CCN(CC(O)COCCOc2ccc(Br)cc2)CC1.Cl (stereo not drawn)	10.4%
COc1ccc(/C(C)=N/NC(=O)C2C3CCCCC32)c(OC)c1 (stereo not drawn)	-0.79%
CCN(CC)S(=O)(=O)c1ccc(F)c(C(=O)NCCC(C)C)c1	-40.2%

SMILES	hERG current change (%, negative = inhibition) at 10uM
COc1ccc(N(C(=O)CNC(=O)c2ccco2)C(C(=O)NCC2CCCO2)c2ccccc2)cc1Cl (stereo not drawn)	11.9%
COc1cccc(N2CCN(C(=O)C3C4C=CC5(CN(Cc6ccccc6Cl)C(=O)C35)O4)CC2)c1 (stereo not drawn)	-14.1%
O=C(O)C1CC=CCC1C(=O)Nc1ccccc1 (stereo not drawn)	-0.752%
CCc1ccccc1NC(=O)c1ccc2c(O)c(S(=O)(=O)c3ccc(OC)cc3)c(=O)[nH]c2c1	11%
NC(N)=NS(=O)(=O)c1ccc(N/C=C\C(=O)c2ccncc2)cc1	11.2%
O=C(CCc1nnc(CCCCc2ccccc2)o1)N(CCO)Cc1ccccc1	-1.97%
CC(C)Oc1ccc(/C=C(\NC(=O)/C=C/c2ccco2)C(=O)NCCc2nc3ccccc3[nH]2)cc1	-28.6%
O=C(NCC(c1ccc(F)cc1)N1CCOCC1)c1ccco1 (stereo not drawn)	-14.5%
C/C(=N\NC(=O)C1CCCC1)c1ccc(Cl)c(Cl)c1	13.7%
Cc1[nH]c2ccccc2c1C(=O)Cn1c(=O)oc2ccccc21	1.12%
CCOc1ccccc1NC(=O)CSc1nnc(NC(=O)c2ccco2)s1	21.7%
O=C(COC(=O)c1ccc(F)cc1Cl)NC1CCS(=O)(=O)C1 (stereo not drawn)	-7.68%
COC(=O)C(C)n1cnc2c(nnn2-c2ccc(OC)cc2)c1=O (stereo not drawn)	6.69%
COCCNC(=O)CSc1nc2sc(C)c(C)c2c(=O)n1-c1ccccc1	1.63%
COc1ccc(OC)c(S(=O)(=O)N2CCN(C(=O)CCc3ccccc3)CC2)c1	-2.06%
Cc1cc(C)n(C(CC(=O)N2CCc3ccccc3C2)C(=O)O)n1 (stereo not drawn)	-4.33%
CCOC(=O)c1cccc(NC(=O)C(C)N2C(=O)c3ccccc3C2=O)c1 (stereo not drawn)	-8.2%
CN(C)c1nnnn1-c1cccc(Oc2ncc(C(F)(F)F)cc2Cl)c1	-10.2%
CCCOc1ccc(/C=C/C(=O)NC2CCCCC2)cc1	6.17%
CSc1cccc(NC(=O)OC2CCCCCCCCCCC2)c1	7.83%
CN(c1ccc(C(=O)NC2CC3CCC2C3)cc1)S(C)(=O)=O (stereo not drawn)	1.44%
